± gives the standard deviation. Only a part is listed here, and it is no random draw.

The assay relates to MIWI (PIWIL1) piRISC loaded with piRNA #1 (30 nt). Put plainly: pre-steady-state target cleavage rate (min^-1); MIWI and MILI are mouse PIWI proteins and EfPiwi is from a freshwater sponge; tags in brackets are library labels; higher = faster piRNA-guided slicing of the target. As to conditions: guide: piRNA #1 5'p-UGAGGUAGUAGGUUGUAUAGUAUCCAGAGG; auxiliary factor: 500 nM mouse GTSF1. Summed up:
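Cleave-'n-Seq: a transcribed, DNA-blocked target RNA library (0.1 nM) was mixed with 1 nM active affinity-purified piRISC carrying one synthetic guide, with or without 500 nM GTSF1 partner protein, in HEPES–potassium acetate buffer at 33 °C for 0–8 or 0–960 min. Uncleaved targets were sequenced and normalised to depth and to weakly complementary targets. Three trials were pooled, and k3 was capped at 0.0001 min^-1. The pre-steady-state cleavage rate came from a burst-and-steady-state fit.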
On to GCUGUGGAUACUAUAGAACCUACUACCUCA, for which the “pre-steady-state target cleavage rate” value turned out to be 1.5 ± 0.09. As to CCUCUGGAUUCUAUACAACCUUCUACCUCA, the “pre-steady-state target cleavage rate” value came out at 0.52 ± 0.027. To GGAGACCUAUGUCAUACAACCUACUACCUCA belongs 0.0206 ± 0.0051; to GGAGACCAUUCUAUACAACCUACUACCUGA, 0.806 ± 0.078.

As for GCUCUGGAUACUAUACUUGCUACUACCUCA, the “pre-steady-state target cleavage rate” value is 0.0746 ± 0.012.

GCUCUGGAUACUAUACAACGUACUAGCUCA: the “pre-steady-state target cleavage rate” value came to 0.59 ± 0.054. In the case of GCUCUGGAUACUAUACAACCUUACUACCUCA, the “pre-steady-state target cleavage rate” value worked out at 0.00688 ± 0.0029. To GGAGUGGAUAGUAUACAACCUACUACCUCA belongs 0.437 ± 0.03. GGAGACCUUACUAUACAACCUACUAGCCUCA: the “pre-steady-state target cleavage rate” value was 0.876 ± 0.078. The same measure for CCUCUGGAUACUAGUACAACCUACUACCUCA: 0.953 ± 0.053; for GGUCUGGAUACUAUACAACCUGCUACCUCA: 0.858 ± 0.052; for GGAGUCCAUACUAUACAACCUACUACCUCA: 1.63 ± 0.091. To CCUCUGGAUACUAUACUACCAACUACCUCA belongs 0.0297 ± 0.007; to GGAGACCUUAGUAUACAACCUACUUCCUCA, 0.0429 ± 0.0098. As for GGAGACCUAUCUAUACAACCUACUACGUCA, the “pre-steady-state target cleavage rate” value amounted to 0.667 ± 0.053.

As to GGAGACCUAUCUAUACAAGCUUCUACCUCA, the “pre-steady-state target cleavage rate” value came out at 0.0248 ± 0.0044.

In the case of CCUCUGGAUACUAUUGAACCUACUACCUCA, the “pre-steady-state target cleavage rate” value is 1.23 ± 0.087. With GGUCUGGAUACUAAUACAACCUACUACCUCA, the “pre-steady-state target cleavage rate” value turned out to be 1.67 ± 0.11. GGAGACGAUACUAUACCAACCUACUACCUCA: the “pre-steady-state target cleavage rate” value was 0.137 ± 0.03. For the sequence CCUCUGGAUACUAUACAACAUACUACCUCA, the “pre-steady-state target cleavage rate” value turned out to be 1.47 ± 0.073. As for CCUCAGGUUACUAUACAACCUACUACCUCA, the “pre-steady-state target cleavage rate” value turned out to be 2.5 ± 0.16.

GGAGACCUAUCUAUACAACCUUCUACCUGA: the “pre-steady-state target cleavage rate” value stood at 0.0346 ± 0.0072. The same measure for GGACUGGAUACUAUACAACCUUCUACCACA: 0.0747 ± 0.014.

Regarding GGAGACCUAUGUAUAGAACCUACUACGUCA, the “pre-steady-state target cleavage rate” value was 0.022 ± 0.0052.

(Values after the supplement of paper PMC10338343.)
